Among all 48,000 compounds or so, about 1,200 (2.5%) were called active. Inconclusive results (about 2%) are left out.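 The calls were made as follows: active = activation of at least 60% and not above a set upper limit (about 1 call in 100 departs from these limits); inconclusive = activation of 40% to 60%, or above that upper limit; inactive = activation under 40%.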 The list shows a part of the results.
Molecular target: Probable G-protein coupled receptor 32 (Homo sapiens) (UniProt O75388)
Experiment: qHTS for Agonists of Human Resolvin D1 Receptor DRV1; also: 0% is about no effect
Details: CHO-K1 GPR32 beta-arrestin PathHunter luminescence, 90 min; at 76.9 µM; stronger effect = higher value; zero percent set by DMSO-only wells
Outline: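 CHO-K1 cells stably expressing ProLink-tagged GPR32 and Enzyme Activator-tagged beta-arrestin were seeded at 2,500 cells/well overnight, exposed to compounds for 90 min at 37 °C, then read by beta-Gal complementation chemiluminescence after 1 h detection reagent.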

UniProt O75388, sequence (O75388 whole entry, looked up): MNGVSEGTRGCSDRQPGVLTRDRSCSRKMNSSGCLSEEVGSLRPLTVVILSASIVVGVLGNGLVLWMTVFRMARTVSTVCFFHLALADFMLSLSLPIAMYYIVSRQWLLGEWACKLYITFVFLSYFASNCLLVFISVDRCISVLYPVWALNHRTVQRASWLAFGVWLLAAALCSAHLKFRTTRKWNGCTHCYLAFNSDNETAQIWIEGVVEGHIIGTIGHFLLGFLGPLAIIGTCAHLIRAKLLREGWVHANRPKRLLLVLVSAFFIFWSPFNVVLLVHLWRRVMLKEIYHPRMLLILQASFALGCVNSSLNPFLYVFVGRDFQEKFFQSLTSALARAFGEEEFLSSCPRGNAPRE

activation, active:
Cn1cc(C(=O)N2CCN(c3cccc(C(F)(F)F)c3)CC2)c2c3ccccc3n(C)c2c1=O 118%

activation, inactive:
CCOC(=O)c1c(-c2ccccc2)csc1NC(=O)c1cc(-c2ccc(F)cc2)on1 24%
CN(c1ccccc1)S(=O)(=O)c1nnc(NC(=O)c2ccccc2)s1 7.68%
CC(C)n1cnc(S(=O)(=O)N2CCCC(C(=O)NCc3ccccc3Cl)C2)c1 (stereo not drawn) -29.6%
COC(=O)Cn1c(=O)c2cccn2c2cccnc21 -14.3%
CCOc1ccc(C(=O)c2c(N)c(-c3nc(-c4ccc5c(c4)OCO5)cs3)c3ccccn23)cc1 4.68%
Cc1cc(C(=O)Nc2ccc(C(C)C)cc2)c2c(C)nn(-c3ccccc3)c2n1 -4.25%
Cc1ccsc1CN(C(=O)c1oc2cc(Br)ccc2c1C)C1CCS(=O)(=O)C1 (stereo not drawn) -30.5%
COc1cccc(CNC(=O)CSc2c3c(nc4cc(Cl)ccc24)CCCC3)c1 -19%
CN(C)CCCN(C(=O)c1ccc2c(c1)OCCO2)c1nc2ccccc2s1 -7.7%
Cc1cccc2c(=O)cc(CSc3ccccc3NC(=O)c3cccc(F)c3)[nH]c12 13.5%
COc1ccccc1CNc1ccc(-c2nc(-c3ccco3)no2)cc1[N+](=O)[O-] 29%
CCOc1ccccc1NC(=O)Cn1cc(C(=O)c2ccc(Cl)cc2)c(=O)c2ccc(C)nc21 4.65%
COc1ccc(Cn2c(=O)c3oc4ccccc4c3n(Cc3cccc(C)c3)c2=O)cc1 -20.3%
O=C(NCc1ccccc1Cl)NCc1noc2ccccc12 0.54%
CSc1ccc(CNC(=O)c2ccc(NC(=O)c3nsc4ccccc34)cc2)cc1 -18.2%
COC(=O)Cn1c(=O)c2c(nc3n2CCN3c2ccc(F)cc2)n(C)c1=O -6.37%
COc1cccc(-n2c(SCC(=O)c3ccc(Cl)cc3)nc3c([nH]c4ccccc43)c2=O)c1 10.1%
Cc1ccc(N2C(=O)[C@@H]3CSC(c4ccc(F)cc4)N3C2=O)cc1 (stereo partly drawn) 3.17%
COc1ccc(Cl)cc1NC(=O)Cn1c(=O)n(CCC(=O)NCc2ccc3c(c2)OCO3)c(=O)c2ccccc21 -8.12%
CCOc1ccccc1C(=O)Nc1nc2c(s1)CC(C)CC2 (stereo not drawn) 5.41%
Cc1ccc(CNS(=O)(=O)c2ccc(-c3cc(C(F)(F)F)on3)s2)cc1 -3.78%
Nc1c(C(=O)Nc2ccccc2)nnn1Cc1ccc(F)cc1Cl -20.7%
Cc1ccccc1NC(=O)Cn1c(=O)n(CC2CCC(C(=O)NCCc3ccccc3)CC2)c(=O)c2ccccc21 (stereo not drawn) 0.136%
Cc1ccc(C(=O)Nc2cc3c(cc2N2CCCC2)n(C)c(=O)c(=O)n3C)cc1 -12.2%
COc1cc(NC(=O)COCc2cc(-c3ccc(F)cc3)on2)cc(OC)c1OC 40.9%
O=C(Nc1ccc(Cl)c(-c2nc3cc(Cl)ccc3o2)c1)c1cc([N+](=O)[O-])ccc1N1CCOCC1 -2.83%
Cc1nn(C(C)(C)C)c(OC(=O)C(C)(C)C)c1Sc1ccccc1 49%
CCCOc1ccc(Oc2nc(NCC(C)C)nc(N3CCOCC3)n2)nn1 -10.7%
O=C(O)CCn1cnc2onc(-c3cc(F)cc(F)c3)c2c1=O 20.3%
CC(=O)Nc1ccc(NC(=O)Cn2nc(C(=O)Nc3ccc(C)cc3)ccc2=O)cc1 -5.71%
CCOc1ccc(-c2cc3c(=O)n(CC(=O)NCc4ccc(Cl)cc4)ccn3n2)cc1 11.6%
CC(C)(C)NC(=O)[C@H]1CC[C@H]2[C@@H]3CC[C@H]4NC(=O)C=C[C@]4(C)[C@H]3CC[C@]12C -18.7%
COc1ccccc1N1CCN(c2nc(-c3ccc(C)cc3)nc3ccccc23)CC1 -20.9%
COc1cccc(NC(=O)C2CCCN(S(=O)(=O)c3ccc4[nH]c(=O)ccc4c3)C2)c1 (stereo not drawn) -11.2%
CCOc1ccc(NC(=O)CN(c2ccc(Cl)cc2C)S(=O)(=O)c2ccccc2)cc1 -13.1%
COc1ccc(N2CC(NC(=O)c3ccc4c(c3)OCO4)CC2=O)cc1 (stereo not drawn) -7.78%
COc1ccc(NC(=O)CN(c2ccc(C)cc2)S(=O)(=O)c2cccc3nonc23)cc1OC -39.1%
CCOc1ccc(OCC)c(NS(=O)(=O)c2c(C(=O)N3CCC(C)CC3)c(C)n(C)c2C)c1 -16.1%
O=C(Nc1ccc(OCc2cc(=O)n3c4c(sc3n2)CCCC4)cc1)c1ccccc1 -7%
CC1CCc2nc3ncn(Cc4ccccc4F)c(=O)c3cc2C1 (stereo not drawn) -6.44%
Cc1ccc(-n2c(SCC(=O)O)nc3sc4c(c3c2=O)CCCC4)cc1 4.03%
O=C(Cn1c(=O)c2ccccc2n(CC(=O)Nc2ccc(F)cc2F)c1=O)NCCc1ccccc1 -1.03%
CCN(CC)CCNC(=O)c1ccc2c(c1)NC(=O)C(CS(=O)(=O)Cc1cccc(Br)c1)N2 (stereo not drawn) -14.6%
COc1ccc(-c2nc3cc(C(C)C)ccc3o2)cc1NC(=O)COc1ccc(C)cc1C -1.93%
COc1ccc(NC(=O)CSc2ncccc2C(=O)O)cc1OC -1.88%
Cc1ccc(C)c(Nc2ncnc3onc(C)c23)c1 14.4%
COc1ccc(NC(=O)CCSc2nc(-c3ccco3)cc(C(F)(F)F)n2)cc1 -7.44%
CCN(C(=O)c1cc2c(=O)oc3ccc(C)cc3c2s1)c1cc(OC)ccc1OC -6.45%
CCN(CC)c1ccc(CN(C(=O)Cc2coc3ccc(C)cc23)C2CCS(=O)(=O)C2)cc1 (stereo not drawn) -38.6%
CCC1CCCCN1CCCNC(=O)c1ccc2c(c1)N(Cc1ccccc1)C(=O)c1ccccc1S2(=O)=O (stereo not drawn) -15.7%
CCn1nc(C)c2c(-c3ccccc3)cc(=O)n(C(C)C(=O)NCc3cccc(OC)c3)c21 (stereo not drawn) -2.83%
CCOc1cccc(CC(=O)N2CCc3c([nH]c4ccccc34)C2c2ccccc2)c1OCC (stereo not drawn) -31.4%

— PubChem BioAssay AID1346428 (National Center for Advancing Translational Sciences (NCATS), 2018)
